For assay [1], the target named is T1, mouse MMRN2^495-678 (mouse) (UniProt A6H6E2).
T1 sequence: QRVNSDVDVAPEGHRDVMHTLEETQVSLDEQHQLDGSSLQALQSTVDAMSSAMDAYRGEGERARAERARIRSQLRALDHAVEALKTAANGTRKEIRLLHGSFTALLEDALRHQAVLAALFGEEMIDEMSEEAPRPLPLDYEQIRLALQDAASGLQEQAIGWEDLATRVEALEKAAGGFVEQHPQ
The experiment in a line: far-Western; mouse MMRN2 (495-678) expressed in HEK293T, probed with mouse CLEC14A-ECD-Fc (Supplementary Figure S4).

By UniProt entry, the sequences of proteins in these tests, tags left out. Where a name states a change or a piece, a line headed by the entry shows the natural chain unless it says otherwise. Chains listed by the source or under a name are the forms on record and can include a tag or linker. Residues count along the entry.
CD93 with C-terminal green fluorescent protein tag (CD93-GFP) (Q9NPY3, residues 22-652): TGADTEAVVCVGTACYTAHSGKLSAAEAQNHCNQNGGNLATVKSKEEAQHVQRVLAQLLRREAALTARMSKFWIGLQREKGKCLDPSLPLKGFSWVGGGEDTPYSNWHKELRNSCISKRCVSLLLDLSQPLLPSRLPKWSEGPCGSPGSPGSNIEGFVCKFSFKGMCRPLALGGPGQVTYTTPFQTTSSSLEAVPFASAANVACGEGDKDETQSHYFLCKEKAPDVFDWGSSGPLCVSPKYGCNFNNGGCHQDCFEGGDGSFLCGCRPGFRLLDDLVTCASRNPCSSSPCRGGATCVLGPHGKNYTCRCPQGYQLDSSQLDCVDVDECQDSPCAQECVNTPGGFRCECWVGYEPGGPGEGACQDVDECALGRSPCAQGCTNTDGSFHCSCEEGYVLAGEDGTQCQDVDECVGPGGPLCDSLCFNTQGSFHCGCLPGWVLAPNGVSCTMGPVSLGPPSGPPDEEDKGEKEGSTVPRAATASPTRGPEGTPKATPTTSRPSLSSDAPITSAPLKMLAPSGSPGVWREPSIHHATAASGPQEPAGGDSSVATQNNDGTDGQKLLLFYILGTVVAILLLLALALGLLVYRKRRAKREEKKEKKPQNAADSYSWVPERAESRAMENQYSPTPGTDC
CD93^C104S (Q9NPY3, form named): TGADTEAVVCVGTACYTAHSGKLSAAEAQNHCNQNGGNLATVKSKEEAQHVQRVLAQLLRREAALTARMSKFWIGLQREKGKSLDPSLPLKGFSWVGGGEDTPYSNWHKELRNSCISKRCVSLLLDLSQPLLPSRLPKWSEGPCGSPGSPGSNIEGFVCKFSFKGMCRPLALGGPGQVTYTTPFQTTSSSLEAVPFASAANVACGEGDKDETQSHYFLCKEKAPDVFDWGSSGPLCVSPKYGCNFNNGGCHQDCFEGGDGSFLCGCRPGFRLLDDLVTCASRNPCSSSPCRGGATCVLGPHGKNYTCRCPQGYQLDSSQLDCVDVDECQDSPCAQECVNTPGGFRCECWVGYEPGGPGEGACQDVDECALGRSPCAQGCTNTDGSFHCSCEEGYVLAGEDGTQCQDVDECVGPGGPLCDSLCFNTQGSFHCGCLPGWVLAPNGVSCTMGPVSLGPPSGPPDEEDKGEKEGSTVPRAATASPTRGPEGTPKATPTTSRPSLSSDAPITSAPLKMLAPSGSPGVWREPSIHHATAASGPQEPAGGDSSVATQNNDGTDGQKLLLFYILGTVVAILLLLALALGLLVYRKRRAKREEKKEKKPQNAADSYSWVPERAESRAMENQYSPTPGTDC
CD93^C136S (Q9NPY3, form named): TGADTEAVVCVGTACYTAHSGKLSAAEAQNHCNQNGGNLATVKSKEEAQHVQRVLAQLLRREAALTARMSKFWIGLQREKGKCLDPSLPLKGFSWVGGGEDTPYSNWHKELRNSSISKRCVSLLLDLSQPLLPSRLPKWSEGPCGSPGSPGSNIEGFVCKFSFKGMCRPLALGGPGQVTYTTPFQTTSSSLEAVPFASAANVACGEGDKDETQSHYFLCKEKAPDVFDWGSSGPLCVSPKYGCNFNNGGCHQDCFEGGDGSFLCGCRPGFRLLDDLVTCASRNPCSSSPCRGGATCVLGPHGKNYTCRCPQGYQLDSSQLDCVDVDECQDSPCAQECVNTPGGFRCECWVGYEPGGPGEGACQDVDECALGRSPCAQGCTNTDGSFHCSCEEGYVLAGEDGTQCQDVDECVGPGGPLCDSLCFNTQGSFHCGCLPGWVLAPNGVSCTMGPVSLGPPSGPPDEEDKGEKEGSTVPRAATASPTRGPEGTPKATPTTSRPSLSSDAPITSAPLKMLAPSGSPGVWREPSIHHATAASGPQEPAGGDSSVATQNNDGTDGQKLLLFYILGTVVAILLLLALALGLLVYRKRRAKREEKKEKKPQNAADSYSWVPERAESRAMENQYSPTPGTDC
CLEC14A with C-terminal green fluorescent protein tag (CLEC14A-GFP) (Q86T13, residues 22-490): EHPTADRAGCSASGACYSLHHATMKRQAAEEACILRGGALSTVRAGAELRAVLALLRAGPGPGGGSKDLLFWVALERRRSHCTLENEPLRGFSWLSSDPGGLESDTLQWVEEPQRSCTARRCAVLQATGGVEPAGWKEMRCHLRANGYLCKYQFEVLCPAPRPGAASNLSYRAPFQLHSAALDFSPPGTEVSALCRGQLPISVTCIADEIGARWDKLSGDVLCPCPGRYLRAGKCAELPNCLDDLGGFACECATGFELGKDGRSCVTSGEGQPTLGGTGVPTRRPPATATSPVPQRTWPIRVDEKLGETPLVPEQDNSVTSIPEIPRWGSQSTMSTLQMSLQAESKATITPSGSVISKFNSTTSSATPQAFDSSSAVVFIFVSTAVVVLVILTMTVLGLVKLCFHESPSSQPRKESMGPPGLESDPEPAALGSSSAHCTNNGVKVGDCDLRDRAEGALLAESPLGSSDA
CLEC14A^C103S (Q86T13, form named): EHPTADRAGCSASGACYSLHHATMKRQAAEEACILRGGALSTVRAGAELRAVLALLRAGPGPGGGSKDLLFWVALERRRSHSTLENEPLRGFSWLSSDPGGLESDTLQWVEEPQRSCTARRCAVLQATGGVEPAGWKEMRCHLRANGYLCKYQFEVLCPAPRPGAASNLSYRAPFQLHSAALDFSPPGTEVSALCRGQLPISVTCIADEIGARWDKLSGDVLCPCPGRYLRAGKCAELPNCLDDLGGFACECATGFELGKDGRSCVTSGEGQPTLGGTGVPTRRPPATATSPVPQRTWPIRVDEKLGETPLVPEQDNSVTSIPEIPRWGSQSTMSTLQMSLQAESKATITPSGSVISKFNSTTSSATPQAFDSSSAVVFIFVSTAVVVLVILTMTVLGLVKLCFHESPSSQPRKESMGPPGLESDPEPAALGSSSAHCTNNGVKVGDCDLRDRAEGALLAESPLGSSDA
CLEC14A^C138S (Q86T13, form named): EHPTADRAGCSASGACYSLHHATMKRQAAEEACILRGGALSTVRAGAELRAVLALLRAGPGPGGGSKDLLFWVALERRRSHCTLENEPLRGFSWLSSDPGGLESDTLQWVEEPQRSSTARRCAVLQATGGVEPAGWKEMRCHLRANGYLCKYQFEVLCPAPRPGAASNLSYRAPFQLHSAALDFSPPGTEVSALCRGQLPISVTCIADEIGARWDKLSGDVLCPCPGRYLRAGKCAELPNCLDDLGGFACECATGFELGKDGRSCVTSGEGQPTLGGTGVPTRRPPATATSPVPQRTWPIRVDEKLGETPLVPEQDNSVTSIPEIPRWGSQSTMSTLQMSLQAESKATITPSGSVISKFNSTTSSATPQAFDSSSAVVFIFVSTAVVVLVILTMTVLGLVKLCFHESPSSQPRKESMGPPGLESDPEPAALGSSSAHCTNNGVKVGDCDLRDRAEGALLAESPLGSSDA
UniProt P07204, residues 19-575: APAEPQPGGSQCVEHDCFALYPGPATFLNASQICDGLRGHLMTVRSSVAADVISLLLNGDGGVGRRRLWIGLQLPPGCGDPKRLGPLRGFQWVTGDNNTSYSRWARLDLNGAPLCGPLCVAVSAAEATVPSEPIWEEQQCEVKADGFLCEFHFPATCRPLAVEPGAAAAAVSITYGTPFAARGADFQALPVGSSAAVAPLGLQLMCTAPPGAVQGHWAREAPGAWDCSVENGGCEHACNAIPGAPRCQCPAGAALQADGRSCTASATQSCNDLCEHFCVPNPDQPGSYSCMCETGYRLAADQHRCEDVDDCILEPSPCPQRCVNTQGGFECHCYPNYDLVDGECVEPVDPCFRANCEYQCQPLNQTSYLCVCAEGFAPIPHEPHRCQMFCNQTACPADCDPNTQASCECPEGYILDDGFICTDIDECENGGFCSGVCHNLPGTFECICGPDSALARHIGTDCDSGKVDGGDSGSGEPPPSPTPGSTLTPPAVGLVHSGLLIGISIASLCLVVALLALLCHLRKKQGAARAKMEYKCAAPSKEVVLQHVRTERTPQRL
UniProt Q8VCP9, residues 22-386: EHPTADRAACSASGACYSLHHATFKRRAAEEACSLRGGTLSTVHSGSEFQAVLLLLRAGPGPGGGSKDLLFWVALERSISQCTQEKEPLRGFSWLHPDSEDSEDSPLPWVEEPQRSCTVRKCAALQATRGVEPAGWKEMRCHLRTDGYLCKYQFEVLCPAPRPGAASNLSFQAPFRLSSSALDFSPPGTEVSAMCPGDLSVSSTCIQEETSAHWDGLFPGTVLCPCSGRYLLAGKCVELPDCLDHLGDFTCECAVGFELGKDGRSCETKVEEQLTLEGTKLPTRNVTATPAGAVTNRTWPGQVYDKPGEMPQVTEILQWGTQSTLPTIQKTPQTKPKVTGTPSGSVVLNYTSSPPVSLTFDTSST

Assay [2] addresses CD93 with C-terminal green fluorescent protein tag (CD93-GFP) (UniProt Q9NPY3). Put plainly: flow cytometry on cells; transfected HEK293T (5 x 10^5) stained with biotinylated MMRN2^495-674 (20 μg/ml), detected with streptavidin-PE; GFP+ cells gated; only the binder purified. Background: A flow cytometer gives signals particle by particle.
The target in the next assay is CD93^C104S (UniProt Q9NPY3). The description is as above.
The target of another assay is CD93^C136S (UniProt Q9NPY3). Described as above.
Assay [3] deals with CLEC14A with C-terminal green fluorescent protein tag (CLEC14A-GFP) (human) (UniProt Q86T13). Described as above.
A further assay concerns the target CLEC14A^C103S (human) (UniProt Q86T13). The assay is described as above.
Another assay addresses CLEC14A^C138S (human) (UniProt Q86T13). Described as above.
The target in assay [4] is thrombomodulin with C-terminal green fluorescent protein tag (UniProt P07204). The description is as above.
The target of a further assay is T2, MMRN2^133-486 (human) (UniProt Q9H8L6).
T2 sequence: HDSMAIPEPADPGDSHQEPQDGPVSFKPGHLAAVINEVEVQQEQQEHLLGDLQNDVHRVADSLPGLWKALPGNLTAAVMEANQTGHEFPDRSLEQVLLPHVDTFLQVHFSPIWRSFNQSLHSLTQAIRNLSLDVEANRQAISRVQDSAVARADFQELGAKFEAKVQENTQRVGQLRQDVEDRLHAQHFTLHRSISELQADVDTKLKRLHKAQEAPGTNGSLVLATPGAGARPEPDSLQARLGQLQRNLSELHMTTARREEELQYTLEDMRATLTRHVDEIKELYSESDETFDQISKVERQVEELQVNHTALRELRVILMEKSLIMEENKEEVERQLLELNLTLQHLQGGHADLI
Put plainly: far-Western; lysates of HEK293T transfected with MMRN2 truncation mutants under reducing conditions; probed with mCD248-ECD-Fc (2 μg/ml); only the binder purified.

Results are given in words; binding and its absence hold for the method and conditions named. Some results given as binding are weak or reduced against the parent protein; the word gives no strength. For part of these data: Sequences can lack the tags named with a protein.

Regarding “mouse CLEC14A-ECD-Fc (from UniProt Q8VCP9 22-386) (Fc fusion)”, the binding result in [1] is on record as “binds”.

B1: biotinylated MMRN2^495-674 with BirA tag, from E. coli (domain or fragment, UniProt Q9H8L6 495-674)
chain: QKLYLDLDVIREGQRDATRALEETQVSLDERRQLDGSSLQALQNAVDAVSLAVDAHKAEGERARAATSRLRSQVQALDDEVGALKAAAAEARHEVRQLHSAFAALLEDALRHEAVLAALFGEEVLEEMSEQTPGPLPLSYEQIRVALQDAASGLQEQALGWDELAARVTALEQASEPPRP
modifications: biotin (BirA tag for specific biotinylation)
Take B1: the binding entry in assay [2] is “binds”; with CD93^C104S, “no binding (tested: 20 μg/ml)”; in the assay with CD93^C136S, “no binding (tested: 20 μg/ml)”; in [3] it was “binds”; with CLEC14A^C103S (human) it was “no binding (tested: 20 μg/ml)”; with CLEC14A^C138S (human), “no binding (tested: 20 μg/ml)”. Further, the binding entry in assay [4] is reported as “no binding (tested: 20 μg/ml)”.

B2: mouse CD248 extracellular domain with Fc tag (mCD248-ECD-Fc) (Fc fusion, UniProt Q91V98 18-695)
chain: QVPWTPEPRAACGPSSCYALFPRRRTFLEAWRACRELGGNLATPRTPEEAQRVDSLVGVGPANGLLWIGLQRQARQCQPQRPLRGFIWTTGDQDTAFTNWAQPATEGPCPAQRCAALEASGEHRWLEGSCTLAVDGYLCQFGFEGACPALPLEVGQAGPAVYTTPFNLVSSEFEWLPFGSVAAVQCQAGRGASLLCVKQPSGGVGWSQTGPLCPGTGCGPDNGGCEHECVEEVDGAVSCRCSEGFRLAADGHSCEDPCAQAPCEQQCEPGGPQGYSCHCRLGFRPAEDDPHRCVDTDECQIAGVCQQMCVNYVGGFECYCSEGHELEADGISCSPAGAMGAQASQDLRDELLDDGEEGEDEEEPWEDFDGTWTEEQGILWLAPTHPPDFGLPYRPNFPQDGEPQRLHLEPTWPPPLSAPRGPYHSSVVSATRPMVISATRPTLPSAHKTSVISATRPPLSPVHPPAMAPATPPAVFSEHQIPKIKANYPDLPFGHKPGITSATHPARSPPYQPPIISTNYPQVFPPHQAPMSPDTHTITYLPPVPPHLDPGDTTSKAHQHPLLPDAPGIRTQAPQLSVSALQPPLPTNSRSSVHETPVPAANQPPAFPSSPLPPQRPTNQTSSISPTHSYSRAPLVPREGVPSPKSVPQLPSVPSTAAPTALAESGLAGQSQRDDRWL
B2: the binding result with MMRN2^133-486 (human) is listed as “binds”.
